According to paper PMC12136788:
The other results are listed elsewhere or left out.

T1: UNK ZnF1-3 (human, UniProt Q9C0B0 31-174)
T1 sequence: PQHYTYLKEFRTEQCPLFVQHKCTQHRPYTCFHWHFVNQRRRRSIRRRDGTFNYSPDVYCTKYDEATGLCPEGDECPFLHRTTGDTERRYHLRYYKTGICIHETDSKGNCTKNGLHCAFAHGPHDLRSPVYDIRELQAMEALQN

B1: chr7:56126124:56126125:+_ENSG00000146731_ENST00000540286|hu_mus|FALSE|FALSE (ssRNA)
RNA: GGGAGUUCUACAGUCCGACGAUCUUGAUUAAUAACGACAAAUCCUUUAUCUGAGUCACCACAGACUUUCUUUUUCAGCUCUAUGAUUUUUUUAACUCUAUCUUCAAUGAAUUUUCUUUCAGCCUUUACUAGUUUUUCUCUCUCCAACAGAGGAUUGAGCAUCA
B2: chr18:35731935:35731936:+_ENSMUSG00000037236_ENSMUST00000166793|perfect_dup|motif|central (ssRNA)
RNA: GGGAGUUCUACAGUCCGACGAUCAGGGAGUGGACCUCUACUUCCAAUGUUAAAUAUAGACUGCAAAUUAUGGGAAGAAGUACGGGCAGAAGACAGUGCACUAUGAGCUCCUUGUUGAUUCAAUGAAGAACUCAUUCCAAGAUUCAACAGAGGAUUGAGCAUCA
B3: chr1:111986530:111986531:-_ENSG00000116455_ENST00000235090|hu_hu|motif|central (ssRNA)
RNA: GGGAGUUCUACAGUCCGACGAUCACUGCAGCCAAUCUGUGAUGCUGGCUUGGGACAGCGGGUAUCCCAGAGUAAAAUUCGGUUGUCCUCGCUGCAUGAAAGAAACACAGAGUCCUUGUGAGGAGAGGCAGCAACACAAGUGACCAACAGAGGAUUGAGCAUCA
B4: chr15:66811301:66811302:+_ENSG00000174442_ENST00000446801|hu_hu|FALSE|FALSE (ssRNA)
RNA: GGGAGUUCUACAGUCCGACGAUCCUCAGCUCCUAGCCAACAAGUACCUUCAGGAUCUGAACUGUCACAUCUUACCCAAAGGGGAGGAAGGGCAGUAACUGGCAGAUUAAUCUUCAAAUGGGUCAUAUUAGGAUUGUGAGCCAUCAACAGAGGAUUGAGCAUCA
B5: chr2:53077437:53077438:+_ENSMUSG00000026960_ENSMUST00000028336|mus_mus|motif|central (ssRNA)
RNA: GGGAGUUCUACAGUCCGACGAUCACAUUUAAAGCUUAAUUAAUAACAACAAGAACCCUUGAUAUGACAAGUACAGUAUCGGUAAUAUAUUACAACAUACAUAUUACAGUUAAAUUAUAUGUACACAUACAGAGUAUCAAAAUACAACAGAGGAUUGAGCAUCA
B6: chr5:134191040:134191041:+_ENSG00000181904_ENST00000394976|hu_hu|motif|central (ssRNA)
RNA: GGGAGUUCUACAGUCCGACGAUCAAAAGCAGCAGUGCCACAGCCAUAACCAAGAUCGGCAAGACGGGAUAGAGCUUUAAUGCGGCCUGGAGGUCUGCCUGGGCUGACUUUGUAUCCCGCAGCUUUAGUUGUCCCCAAAGGUCUCAACAGAGGAUUGAGCAUCA
B7: chr11:119170673:119170674:+_ENSG00000110395_ENST00000264033|hu_hu|FALSE|FALSE (ssRNA)
RNA: GGGAGUUCUACAGUCCGACGAUCGUGGGAACUGAAGGACACCUUCAAAUGCACUCAAGACCCAUAAAAUAAUAAAACAUACUAGCUGCUCCAUUUUCAUUUCACCACUUUGAAAUCUUGGAACCACUGAUGUGAUAUCCCACACAACAGAGGAUUGAGCAUCA
B8: chr16:5026692:5026693:-_ENSMUSG00000022536_ENSMUST00000115844|mus_hu|FALSE|FALSE (ssRNA)
RNA: GGGAGUUCUACAGUCCGACGAUCACCCAUUUUUAGCAAGUUGGAGACGAUUCCACUUCCCAUGAGACCAAGGCCCAAAAAUCCUAUCUUUUUGUCUGUGGGUGUGAUGCUGCCAUUCACGGCUGUGCUGUCAGCUGCCUGGAUCAACAGAGGAUUGAGCAUCA
B9: chr11:122930872:122930873:-_ENSG00000109971_ENST00000227378|hu_mus|FALSE|FALSE (ssRNA)
RNA: GGGAGUUCUACAGUCCGACGAUCGACCUUCUUAUCUAAGCCGUAAGCAAUAGCAGCAGCAGUUGGUUCAUUGAUGAUUCGAAGUACAUUGAGGCCAGCAAUAGUUCCAGCAUCUUUUGUUGCCUGUCGCUGAGAGUCAUUGAACAACAGAGGAUUGAGCAUCA
B10: chr8:127356239:127356240:+_ENSMUSG00000036913_ENSMUST00000167588|mus_hu|motif|central (ssRNA)
RNA: GGGAGUUCUACAGUCCGACGAUCGCCCAGGCUCAAUCCGGAAAGCACCACCCUCCUCAAACUUGGUGGGCCAUAGGGCACCGGGGGCGCUGUUGCAACUACAAAGUACAUAUCAGGCUGAAGAUGCAGCCUGGAAAUAUAUACCAACAGAGGAUUGAGCAUCA
B11: chr5:128448638:128448639:+_ENSG00000066583_ENST00000173527|hu_mus|hu_hu_hu_mus_False|78_78 (ssRNA)
RNA: GGGAGUUCUACAGUCCGACGAUCGGCACUCGCCUUAAUUAGGUUCUGAAUUUCCUUGAAUUUUGGAUGGUCUUUGUCAGCCACCAGCUGUAGGAGGACAGCCUCACUAGUGGUCACGAUGAUCCCAGUGCGGGCAAGACGCUCCAACAGAGGAUUGAGCAUCA
B12: chr6:124662746:124662747:+_ENSMUSG00000004264_ENSMUST00000004375|mus_mus|FALSE|FALSE (ssRNA)
RNA: GGGAGUUCUACAGUCCGACGAUCUUCGGCCAGGAUCGUGUCCUGCUGCACGCCACCAAUACGAUUAAAAAAGAUGGCUCUAUGACCGCCUUCCACGGUGAACACGGAUUCGCGGACGCCGUAGGCCACCGCCCCGGCCCCCAGCAACAGAGGAUUGAGCAUCA
B13: chr10:126492284:126492285:-_ENSMUSG00000040502_ENSMUST00000040307|mus_mus|FALSE|FALSE (ssRNA)
RNA: GGGAGUUCUACAGUCCGACGAUCAUGCACACCACUAACCCACACCCCCAGCCCUUAGACCCACAUUCCCCAAAUCCUUUCUAUAAUAAAUAAGAGUUCUUACGCCUCUCUCUCUCAGUAAUACCAUUAGCCGGGCACACCUGGCAACAGAGGAUUGAGCAUCA
B14: chr1:163117127:163117128:-_ENSG00000143248_ENST00000313961|hu_mus|hu_hu_hu_mus_False|1_58 (ssRNA)
RNA: GGGAGUUCUACAGUCCGACGAUCUGCUACAAAGGAUGUAACUCAACUCACAGGGCAACUUUUGGAAGCCUGACCAGAUUACUACUUGAUUAGCUCCUUAUAAAAUUCAGAGCGCACAAAGCGGGGCAGAGAAUCCUUUUCCAUCAACAGAGGAUUGAGCAUCA
B15: chr1:46159212:46159213:+_ENSG00000159596_ENST00000372025|hu_mus|hu_hu_hu_mus_True|8_8 (ssRNA)
RNA: GGGAGUUCUACAGUCCGACGAUCUCUGAUCCCUCCCAAGAAAGCUAGGAAACCGGCUCCAUAAGCCAUCUGAGUGAAAGCUAGGACGGGGAUAUAAGACUUUGUUAUUACCAUGAGAAGUGGGGGAGCAACGAAGGGGAUUAACAACAGAGGAUUGAGCAUCA
B16: chr3:94910677:94910678:-_ENSMUSG00000028126_ENSMUST00000107236|mus_mus|FALSE|FALSE (ssRNA)
RNA: GGGAGUUCUACAGUCCGACGAUCACUUGAGCCGGGCCCCGGGAGUCCCGCGUCUCGGAUAGAACAAACCUAAAGGAAAACCUAGGCACCUGAGGUGCCCCCAAAAGCGAAUGCCCCCCCUCCCUCACCUCCCCAGCCACUGCCCAACAGAGGAUUGAGCAUCA
B17: 80559767_80559887_2609_3pUTR_ENSG00000141568_ENST00000335255|human|control|control (ssRNA)
RNA: GGGAGUUCUACAGUCCGACGAUCAGGGCCUGUGUGAUUCUGAAAGUCUCAGUAGAAAUGGAGUGAUGUGAAAUGCCCAAGACCCCAUUAUUUUGUAAAGAAAGGACACCUCAAAAUACUCUAAUUCCACAUGUCUCCGCUGCCCAACAGAGGAUUGAGCAUCA
B18: chrX:140365796:140365797:-_ENSMUSG00000031285_ENSMUST00000033642|mus_mus|mus_mus_mus_hu_False|1_48 (ssRNA)
RNA: GGGAGUUCUACAGUCCGACGAUCCUUCUCAUUACUCAGUGCCUGCAAGGUUCUGGUUCGGUAGAAGCUACAGUGGGCGCUGUGAGUGGGACUUGGAAACCCAUUCAUCCGGGAGCCUCGCAUGUUCCUGGAUGUCUUGUCUCGCAACAGAGGAUUGAGCAUCA
B19: chr7:108143013:108143014:-_ENSG00000135241_ENST00000257694|hu_mus|FALSE|FALSE (ssRNA)
RNA: GGGAGUUCUACAGUCCGACGAUCGAGGAUUCGGAUUCCUCUGCCUUUCACUGGAUCUACAUAACCAAUUAAAGCCAAAAUUUCUCUAACUGCAGCCUGAAGAGUUUCAUCCUUAACUUGUCUCAGCCGUAAUAAAUAUGGAAUCAACAGAGGAUUGAGCAUCA
B20: chr7:135612270:135612271:-_ENSG00000105887_ENST00000393085|hu_mus|hu_hu_hu_mus_False|58_78 (ssRNA)
RNA: GGGAGUUCUACAGUCCGACGAUCGUUUUUUUCUGAGAUGUUAAAUAGUACUUCAGUAACAAAACUUACUUAACCUUUCGCUAAUGCGUGUUGUACCAAAAGCAGACAUUUUAGCUUCAUUUAUUCAAAAAUAUUAACAUUAAGCAACAGAGGAUUGAGCAUCA
B21: chr5:21408736:21408737:-_ENSMUSG00000042453_ENSMUST00000161356|mus_hu|mus_mus_mus_hu_False|78_108 (ssRNA)
RNA: GGGAGUUCUACAGUCCGACGAUCGUUGACAGCAUUAUAGAUGGUGGCUUCAUGGAACUGGAACGGGGAGCAGCCAAUGCUGUUAGAAGAGGAAGGAAGGCACUGGGUCUGUACGAGCUGCCAGGAAUCCGAUCUUGCAUCCUUCAACAGAGGAUUGAGCAUCA
B22: chr5:64892317:64892318:-_ENSG00000113595_ENST00000231524|hu_hu|motif|central (ssRNA)
RNA: GGGAGUUCUACAGUCCGACGAUCAGCUUGAGUAUUGAGGUAAUAAUGUUUCCACAAUGGUCUUAAUUUGUGUUUUCCACCGGCAUCCCAAAUAGUGAAUUUUAGAUUUUUAUAUUCUACAGUUUCCACGUUAAAACCAAUUGUCAACAGAGGAUUGAGCAUCA

Each binder was assayed against T1, UNK ZnF1-3 (assay: nsRBNS (natural sequence RNA bind-n-seq); RBNS binding buffer (assumed for nsRBNS): 25 mM Tris pH 7.5, 150 mM KCl, 3 mM MgCl2, 0.01% Triton X-100, 500 ug/ml BSA, 20 U/ml SUPERase-In, 4 C; UNK is unkempt and MSI1 is Musashi-1; names of the RNAs are library labels; protein concentration not given here; high values mean tight binding).

| Binder | binding signal [enrichment R] |
| --- | --- |
| B1 | 0.506 |
| B2 | 1.11 |
| B3 | 1.94 |
| B4 | 1.45 |
| B5 | 1.42 |
| B6 | 1.39 |
| B7 | 1.14 |
| B8 | 1.06 |
| B9 | 1.28 |
| B10 | 1 |
| B11 | 0.875 |
| B12 | 0.531 |
| B13 | 2.62 |
| B14 | 1.1 |
| B15 | 1.74 |
| B16 | 1.96 |
| B17 | 1.08 |
| B18 | 0.384 |
| B19 | 1.2 |
| B20 | 0.912 |
| B21 | 1.75 |
| B22 | 2.03 |
